# Inconclusive results, whose numbers are uncertain, are shown with a selection of clear calls. Where the call is inconclusive, the potency comes from a doubtful curve fit. Activity calls are given as the source filed them. Calls follow the shape of the dose curve; as a rule, active = well fitted inhibition curve with a large enough effect; inconclusive = small, poorly fitted or top-dose-only effect; inactive = flat fitted curve, though single readings scatter.
# Test: qHTS to identify inhibitors of the type 1 interferon - major histocompatibility complex class I in skeletal muscle: primary screen against the NCATS Pharmaceutical Collection (AID 1347407);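 also: luminescence of HiBiT knocked into endogenous HLA-B as interferon-induced MHC class I level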
# Conditions: human skeletal muscle cells, IFN-b-induced MHC-I HiBiT luminescence, 24 h; activity change, negative = inhibition: at 45.9 µM (top of the series)
# How it was run: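 Cells were seeded with 4 ng/ml IFN-beta, incubated 1 h, then dosed with compounds over eight 1:5 steps up to 46 uM final. After 24 h at 37 C, HiBiT lytic reagent was added and luminescence read after 10 min lysis in the dark.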
# % is scaled to controls: 0 for no effect and ±100 for the full control effect; potency is read from the fitted curve at half-maximal effect; tags tell the direction and shape of the fitted curve.
Structure (SMILES),Potency,"activity change, negative = inhibition"
Nc1c2c(nc3ccccc13)CCCC2,inactive,
COc1ccc(-c2ccc3cc(C(=O)O)ccc3c2)cc1C12CC3CC(CC(C3)C1)C2,inactive,
Cc1ccc(Nc2nccc(N(C)c3ccc4c(C)n(C)nc4c3)n2)cc1S(N)(=O)=O,"inconclusive: 37.4 µM [inhibitor, single point]",
COC(=O)C1=C(C)NC(C)=C(C(=O)OC(C)C)C1c1cccc2nonc12 (stereo not given),"inconclusive: 3.74 µM [inhibitor, partial curve, poor fit]",
C1COC(NC(C2CC2)C2CC2)=N1,,inconclusive: -30.5% [inhibitor]
CC(c1cc2ccccc2s1)N(O)C(N)=O (stereo not given),"inconclusive: 14.9 µM [inhibitor, partial curve]",
CCOC(=O)[C@H](CCc1ccccc1)N[C@H]1CCc2ccccc2N(CC(=O)O)C1=O,"inconclusive: 23.6 µM [inhibitor, partial curve, poor fit]",
Cn1c(=O)c2c(ncn2CC(O)CO)n(C)c1=O (stereo not given),inactive,
Cc1cc(C(C)(C)C)cc(C)c1CC1=NCCN1,inactive,
CCCCc1oc2ccc(NS(C)(=O)=O)cc2c1C(=O)c1ccc(OCCCN(CCCC)CCCC)cc1,"inconclusive: 14.9 µM [inhibitor, partial curve, poor fit]",
CCC(=O)O[C@]1(C(=O)SCF)[C@H](C)C[C@H]2[C@@H]3C[C@H](F)C4=CC(=O)C=C[C@]4(C)[C@@]3(F)[C@@H](O)C[C@@]21C,"inconclusive: 0.0149 µM [inhibitor, full curve, poor fit]",
C=CC(=O)Nc1cc2c(Nc3ccc(F)c(Cl)c3)ncnc2cc1OCCCN1CCOCC1,"inconclusive: 4.7 µM [inhibitor, full curve]",
COc1cc2c(N3CCN(C(=O)Nc4ccc(OC(C)C)cc4)CC3)ncnc2cc1OCCCN1CCCCC1,"inconclusive: 5.28 µM [inhibitor, partial curve]",
COc1cc(NCc2ccc3nc(N)nc(N)c3c2C)cc(OC)c1OC,"inconclusive: 33.3 µM [inhibitor, single point]",
CCCCC(=O)O[C@]1(C(=O)CO)[C@@H](C)C[C@H]2[C@@H]3CCC4=CC(=O)C=C[C@]4(C)[C@@]3(F)[C@@H](O)C[C@@]21C,"inconclusive: 0.105 µM [inhibitor, full curve]",
COc1cc(Nc2c(C#N)cnc3cc(OCCCN4CCN(C)CC4)c(OC)cc23)c(Cl)cc1Cl,active: 7.45 µM,
COC(=O)Nc1nc2ccc(C(=O)c3ccccc3)cc2[nH]1,"inconclusive: 1.49 µM [inhibitor, full curve]",
Cc1oc(=O)oc1CN1CCN(c2cc3c(cc2F)c(=O)c(C(=O)O)c2n3C(C)S2)CC1 (stereo not given),inactive,
O=C(c1ccc(F)cc1)C1CCN(CCn2c(=O)[nH]c3ccccc3c2=O)CC1,inactive,
COc1cc2nc(N3CCN(C(=O)C4COc5ccccc5O4)CC3)nc(N)c2cc1OC (stereo not given),"inconclusive: 41.9 µM [inhibitor, single point]",
